Reference: PubChem BioAssay AID1851 (National Center for Advancing Translational Sciences (NCATS), 2009)
The hits were mostly taken out for another list; the other results follow. Records with an inconclusive call do not appear. Activity calls are given as the source filed them. Calls follow the shape of the dose curve; as a rule, active = well fitted curve in the direction sought with a large enough effect; inconclusive = small, poorly fitted or top-dose-only effect, or effect the other way; inactive = no such curve, though single readings can be large or run the other way.

These molecules were tested against Cytochrome P450 2D6 (Homo sapiens) (UniProt P10635) (assay: Cytochrome panel assay with activity outcomes). Settings: recombinant CYP, pro-luciferin dealkylation, luminescence, p450-cyp2d6; at 57.1 µM (top of the series) unless noted.
Sequence of UniProt P10635 (P10635 whole entry, looked up): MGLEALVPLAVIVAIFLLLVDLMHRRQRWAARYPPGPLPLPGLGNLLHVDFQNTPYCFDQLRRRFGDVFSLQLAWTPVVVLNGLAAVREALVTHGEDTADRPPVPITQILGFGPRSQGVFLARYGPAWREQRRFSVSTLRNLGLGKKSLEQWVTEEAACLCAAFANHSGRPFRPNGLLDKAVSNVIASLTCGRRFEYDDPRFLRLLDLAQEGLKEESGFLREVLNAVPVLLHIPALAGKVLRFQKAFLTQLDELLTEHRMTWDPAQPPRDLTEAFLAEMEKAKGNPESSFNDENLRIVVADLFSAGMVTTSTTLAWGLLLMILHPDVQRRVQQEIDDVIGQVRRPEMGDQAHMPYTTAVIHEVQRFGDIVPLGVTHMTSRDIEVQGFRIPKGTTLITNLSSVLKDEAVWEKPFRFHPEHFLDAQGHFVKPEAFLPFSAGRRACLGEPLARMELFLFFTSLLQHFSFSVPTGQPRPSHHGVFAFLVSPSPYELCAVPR
% is scaled to controls: 0 for no effect and ±100 for the full control effect.

| SMILES | activity, negative = inhibition |
| --- | --- |
| COC(=O)C1=C(C)NC(C)=C(C(=O)OC)C1c1ccccc1[N+](=O)[O-] | inactive: 11.1% |
| CC(=O)[C@@H]1CC[C@H]2[C@H]3CC[C@H]4C[C@@H](O)CC[C@]4(C)[C@@H]3C(=O)C[C@@]12C | inactive: -4.2% [at 25.6 µM] |
